From PubChem BioAssay AID1030 (National Center for Advancing Translational Sciences (NCATS), 2008)
Out of some 220,000 compounds screened, about 16,000 (7.3%) were called active. Inconclusive results, whose numbers are uncertain, are shown with a selection of clear calls. Calls follow the shape of the dose curve; as a rule, active = well fitted inhibition curve with a large enough effect (not every such curve was filed as active); inconclusive = small, poorly fitted or top-dose-only effect, or another doubt; inactive = no such curve, though single readings can be large or run the other way. No potency is given beside an inconclusive call; the fits are too rough. A structure can be active in one record and inactive in another.

Each compound was assayed against Aldehyde dehydrogenase 1A1 (Homo sapiens) (UniProt P00352) (assay: qHTS Assay for Inhibitors of Aldehyde Dehydrogenase 1 (ALDH1A1)). Settings: Purified ALDH1A1, NADH fluorescence, propionaldehyde substrate; series mostly up to 75.3 µM; activity, negative = inhibition: at the top concentration.
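For activity, negative = inhibition in this document: plate controls were no enzyme wells and a reference inhibitor.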
Potency is read from the fitted curve at half-maximal effect; tags tell the direction and shape of the fitted curve.

Chain of UniProt P00352 (P00352 whole entry, looked up): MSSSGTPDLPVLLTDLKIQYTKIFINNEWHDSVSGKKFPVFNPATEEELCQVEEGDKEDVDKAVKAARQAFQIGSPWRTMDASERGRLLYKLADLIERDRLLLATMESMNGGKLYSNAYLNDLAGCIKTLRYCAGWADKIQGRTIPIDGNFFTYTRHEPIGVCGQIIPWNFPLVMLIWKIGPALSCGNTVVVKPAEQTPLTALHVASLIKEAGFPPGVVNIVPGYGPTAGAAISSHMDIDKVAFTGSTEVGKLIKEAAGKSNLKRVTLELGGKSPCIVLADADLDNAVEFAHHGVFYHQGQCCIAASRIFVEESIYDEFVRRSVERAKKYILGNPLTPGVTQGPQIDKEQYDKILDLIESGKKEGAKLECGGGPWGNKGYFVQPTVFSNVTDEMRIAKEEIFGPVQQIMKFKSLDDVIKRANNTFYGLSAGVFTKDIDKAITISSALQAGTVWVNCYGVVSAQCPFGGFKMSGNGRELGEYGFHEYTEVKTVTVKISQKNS

Compound	Potency	activity, negative = inhibition
COc1ccccc1NC(=S)N(Cc1ccco1)Cc1cc2ccc(C)c(C)c2[nH]c1=O	inconclusive [inhibitor, single point]	
CCOC(=O)C(NC(=O)c1cccc(Cl)c1)(Nc1sc2c(c1C(N)=O)CCC2)C(F)(F)F (stereo unspecified)	inconclusive [inhibitor, single point]	
COCCn1c(=O)[nH]c2cc(C(=O)NCCN3CCN(c4ccccc4F)CC3)ccc2c1=O	inconclusive [inhibitor, single point]	
O=C(CSc1nnnn1-c1cccc2ccccc12)N1CCOCC1		inactive: -14.2%
COCCCNC(c1ccccc1)c1ccncc1 (stereo unspecified)	inconclusive [inhibitor, single point]	
CN(C(=O)c1ccc(S(=O)(=O)NC2CCCC2)cc1)C1CCCCC1	inconclusive [inhibitor, single point]	
CN=C(Nc1cc(Cl)ccc1Cl)SC1CC(=O)N(c2ccc(C(=O)OC)cc2)C1=O (stereo unspecified)		inactive: 0.0302%
Cc1ccc(-c2cc3nc(C)cc(C)n3n2)cc1	inconclusive [inhibitor, single point]	
CC1(C)CC(=O)c2cc(N=C/C(C(=O)c3ccccc3)=C(\O)c3ccccc3)c(=O)oc2C1	inconclusive [inhibitor, single point]	
CC1CN(c2snnc2C=C2C(=O)OC(C)(C)OC2=O)CC(C)O1 (stereo unspecified)	active: 20 µM	
O=C(c1ccco1)c1cc2c(ccc3ccccc32)oc1=O	inconclusive [inhibitor, single point]	
COC(=O)c1sccc1NC(=O)CSCC(=O)O		inactive: 10.7%
COc1ccccc1NC(=O)CCc1nc(-c2ccccc2F)no1	inconclusive [inhibitor, single point]	
CCC(C)NC(=O)CSc1nc2ccccc2c(=O)n1-c1c(C)n(C)n(-c2ccccc2)c1=O (stereo unspecified)		inactive: 5.22%
CN(C)c1cc2c(c(N(C)C)c1)C(=O)c1ccccc1C2=O	active: 0.708 µM	
O=C(Nc1ccc(Cl)c(-c2nc3ccccc3[nH]2)c1)c1ccc2c(c1)OCO2	inconclusive [inhibitor, single point]	
CCCCC1(C)OC(=O)C(=Cc2ccc(SC)cc2)C(=O)O1 (stereo unspecified)	inconclusive [inhibitor, single point]	
CCC(C)NCCCCOc1ccc(Br)cc1 (stereo unspecified)	inconclusive [inhibitor, single point]	
COc1ccccc1NC(=O)c1cnc(Nc2ccccc2OC)c2ccccc12	inconclusive [inhibitor, single point]	
COc1ccc(OCC(=O)Nc2ccc(S(=O)(=O)Nc3cc(C)nc(C)n3)cc2)cc1	inconclusive [inhibitor, full curve]	
COc1ccc(-n2c(-c3ccc(F)cc3)cnc2SCC(=O)NCc2ccco2)cc1	inconclusive [inhibitor, single point]	
O=[N+]([O-])c1cccc(S(=O)(=O)c2cccc([N+](=O)[O-])c2)c1		inactive: -2.5%
CC1(C)CC(=O)C2=C(C1)OC(N)=C(C#N)C21C(=O)N2CCCc3cccc1c32 (stereo unspecified)	active: 7.08 µM	
Cc1cc(C)nc(SCC(=O)Nc2ccc(S(=O)(=O)NCCO)cc2)n1	inconclusive [inhibitor, single point]	

Compound	Potency	activity, negative = inhibition
CCOc1ccccc1Nc1nnc(SCC(=O)Nc2ccc3[nH]c(=O)[nH]c3c2)s1	inconclusive [inhibitor, single point]	
Oc1ccccc1N=Nc1ccccc1O		inactive: 3.53%
CC(C)(CN)CN		inactive: 6.5% [at 13.5 µM]
CCN1CCN(c2cc3nc(C)n(Cc4ccccc4)c(=O)c3cc2NC(=O)c2ccccc2F)CC1	inconclusive [inhibitor, single point]	
Cc1cc2ccccn2c1C(=S)NC(=O)c1ccccc1	inconclusive [inhibitor, single point]	
COc1ccc(N(CN2C(=O)c3ccccc3C2=O)C(=O)C(C)C)cc1	active: 11.2 µM	
Clc1cccc(OCc2nc(-c3ccncc3)n[nH]2)c1		inactive: -0.791%
COc1cccc(CNc2ncc(Br)cc2Br)c1O	inconclusive [inhibitor, partial curve]	
CN(C(=O)c1cccc(N2C(=O)C3CC=CCC3C2=O)c1)C1CCCCC1 (stereo unspecified)	inconclusive [inhibitor, single point]	
O=C(NCC1CCCO1)c1cccc(N2CCCC2=O)c1 (stereo unspecified)		inactive: 3.99%
COc1ccc(OCC(=O)Nc2cc(-c3nn(C)c(=O)c4ccccc34)ccc2OC)cc1	inconclusive [inhibitor, partial curve]	
CO[C@H]1/C=C/O[C@@]2(C)Oc3c(C)c(O)c4c(O)c(c5c(c4c3C2=O)NC2(CCN(CC(C)C)CC2)N=5)=NC(=O)/C(C)=C\C=C\[C@H](C)[C@H](O)[C@@H](C)[C@@H](O)[C@@H](C)[C@H](OC(C)=O)[C@@H]1C	inconclusive [inhibitor, single point]	
N#Cc1ccc(CN2CC3(CCN(C(=O)c4cccc(F)c4)CC3)C2)cc1	inconclusive [inhibitor, partial curve]	
CCc1cc(=O)[nH]c(SCc2ccc(C)cc2)n1		inactive: -2.75%
Cc1occc1-c1nnc(SCC(=O)N(C)C)o1	inconclusive [inhibitor, single point]	
O=C(COC(=O)C1CCN(S(=O)(=O)c2ccc3c(c2)OCCO3)CC1)Nc1ccc(C(F)(F)F)cc1		inactive: 2.39%
O=c1[nH]c(Cc2ccccn2)nc2scc(-c3ccc(Cl)cc3)c12	inconclusive [inhibitor, single point]	
CN(C)c1ccc(/C=N/NC(=O)c2cccc(N3CCCC3=O)c2)cc1	inconclusive [inhibitor, partial curve]	
COc1ccc(NS(=O)(=O)c2ccc(NC(C)=O)cc2)c(OC)c1		inactive: 1.8%
CN(Cc1nc(-c2cnccn2)no1)Cc1n[nH]c2c1CCCC2		inactive: -3.16%
Cc1cc(C)c(C#N)c(SCS(=O)c2ccc(C(C)(C)C)cc2)n1 (stereo unspecified)	inconclusive [inhibitor, single point]	
CCOC(=O)Cc1cc(=O)n2[nH]cc(-c3cccc(Br)c3)c2n1	inconclusive [inhibitor, partial curve]	
CN(CCC#N)C(=O)CSc1nnc(-c2ccco2)n1N		inactive: 9.04%
CNC(=S)N(Cc1cc2ccc(OC)cc2[nH]c1=O)CC1CCCO1 (stereo unspecified)	inconclusive [inhibitor, partial curve]	

Compound	Potency	activity, negative = inhibition
O=C(CSc1nc2ccc([N+](=O)[O-])cc2s1)c1ccc2ccccc2c1	active: 11.2 µM	
CO/N=C1/c2cc(OC)ccc2O[C@@H](c2cccc(OC)c2)[C@H]1O	inconclusive [inhibitor, single point]	
O=[N+]([O-])c1cc(/C=N\Nc2nc(-c3ccccc3)cs2)ccc1O	active: 11.2 µM	
COC(=O)c1ccc(NC(c2ccc(Cl)cc2)P(=O)(OC)OC)cc1 (stereo unspecified)		inactive: 10.5%
Cc1cc(C)c2c(n1)nn1c(NCCOCCO)cc(C)nc21	inconclusive [inhibitor, partial curve]	
CN(C)C(=S)Nc1cccc(-c2n[nH]c(=S)o2)c1	inconclusive [inhibitor, single point]	
CC(C)c1onc(C(=O)NCCc2ccccc2)c1[N+](=O)[O-]	inconclusive [inhibitor, partial curve, poor fit]	
O=C(O)c1ccc(Cn2c(SCc3cc(=O)n4cc(Br)ccc4n3)nc3ccsc3c2=O)cc1	inconclusive [inhibitor, partial curve, poor fit]	
Cc1cc2cc(CCNC(=O)c3cccs3)c(=O)[nH]c2cc1C	inconclusive [inhibitor, single point]	
CC1=NNC(=O)C1CCC(=O)N/N=C/C(Br)=C/c1ccccc1 (stereo unspecified)	inconclusive [inhibitor, single point]	
COc1cc(NC(=O)CSc2nc(C)cs2)cc(OC)c1		inactive: -11.8%
CSc1cccc(NC(C)C(=O)NCc2ccccc2)c1 (stereo unspecified)	inconclusive [inhibitor, single point]	
Cc1ccc(NC(=S)N(CCCN2CCC(C)CC2)Cc2ccco2)cc1C		inactive: 3.11%
CCOC(=O)CN(Cc1ccc(OC)c(OC)c1)S(=O)(=O)c1ccc(OC)cc1	inconclusive [inhibitor, partial curve]	
Cc1nc2ccc(Cl)cn2c1C(=O)NN	active: 2 µM	
CS(=O)(=O)c1ccc2c(c1)SC1=NC(=O)/C(=C/c3ccco3)C(=N)N12	inconclusive [inhibitor, single point]	
C=CCOC(=O)N[C@H](/C(C(=O)OC)=C(\C)NCc1ccccc1)c1cccc(C(F)(F)F)c1		inactive: -0.25%
CC1=C(C(=O)OC(C)C)C(C)C(C(=O)OC(C)C)=C(C)N1	inconclusive [inhibitor, single point]	
COc1ccc(-n2ncc3c(N4CCCCC4)ncnc32)cc1	inconclusive [inhibitor, partial curve]	
Cc1ccc(CNC(=O)CCC2CCCN(Cc3cccc4ncccc34)C2)o1 (stereo unspecified)		inactive: 3.35%
CCOc1ccc(N2C(=O)CC(NCCc3c[nH]c4ccccc34)C2=O)cc1 (stereo unspecified)	active: 11.2 µM	
COc1ccc(N2C(=O)CCC2=O)c(OC)c1		inactive: 10.8%
CCC(=O)NC(=S)Nc1c(C)cc(Br)cc1C	inconclusive [inhibitor, single point]	
